# Results as given in the supplement of paper PMC3334620.
# In all, about 33,000 sequences were measured (“E-score (-0.5 to 0.5)”: median about -0.012, highest 2% from about 0.29 on). The list shows a part of the results.
# Target: T1, Ybr033w (UniProt P38073)
# T1 sequence: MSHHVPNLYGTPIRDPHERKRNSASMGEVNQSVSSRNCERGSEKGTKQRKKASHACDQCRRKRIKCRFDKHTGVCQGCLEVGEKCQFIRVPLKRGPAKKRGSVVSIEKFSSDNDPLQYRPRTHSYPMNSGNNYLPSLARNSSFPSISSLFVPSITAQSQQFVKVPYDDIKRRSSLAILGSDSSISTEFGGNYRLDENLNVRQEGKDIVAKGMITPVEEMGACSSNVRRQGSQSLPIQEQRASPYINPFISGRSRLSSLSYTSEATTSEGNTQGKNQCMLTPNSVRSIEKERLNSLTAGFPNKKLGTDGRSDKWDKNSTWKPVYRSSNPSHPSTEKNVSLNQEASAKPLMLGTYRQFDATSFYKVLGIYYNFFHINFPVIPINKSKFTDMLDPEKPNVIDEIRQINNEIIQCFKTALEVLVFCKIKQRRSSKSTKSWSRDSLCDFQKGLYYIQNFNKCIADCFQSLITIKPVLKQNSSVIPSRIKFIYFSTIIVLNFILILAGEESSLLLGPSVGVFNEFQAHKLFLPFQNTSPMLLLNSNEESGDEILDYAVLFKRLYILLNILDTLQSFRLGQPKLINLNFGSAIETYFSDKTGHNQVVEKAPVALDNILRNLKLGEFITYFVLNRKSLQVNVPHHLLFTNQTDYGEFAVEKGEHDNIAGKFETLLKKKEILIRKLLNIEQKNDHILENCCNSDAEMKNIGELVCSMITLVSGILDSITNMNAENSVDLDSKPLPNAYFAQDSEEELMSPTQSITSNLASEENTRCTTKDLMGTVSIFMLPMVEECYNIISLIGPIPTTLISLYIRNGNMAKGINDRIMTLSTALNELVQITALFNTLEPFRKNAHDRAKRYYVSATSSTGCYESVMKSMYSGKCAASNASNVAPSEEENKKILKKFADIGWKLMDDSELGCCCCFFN
# Test: PBM E-score (8-mer binding enrichment) (E-score (-0.5 to 0.5)); higher = stronger / more preferred TF binding; most listed sequences are background and not binding sites
# Conditions: protein concentration: 200 nM; construct: GST-full length
# In short: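 For each ungapped eight-base word taken together with its reverse complement, the Universal PBM Analysis Suite assigned an E-score. Binding data came from GST-tagged yeast transcription factors, applied at about 100-200 nM, on universal all-10-mer Agilent arrays made double-stranded by primer extension. Fluorescent anti-GST marked bound protein, and scans were normalised with masliner.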
row,Sequence,PBM E-score
1,TAACTCTA,-0.0542
2,TCGCTAGA,-0.0659
3,AAGGTTCA,0.0886
4,TGGCTTAA,0.133
5,AGCACAGC,0.0732
6,AAGAGTAT,0.00192
7,AGGCCGAC,-0.249
8,TTGGCCAA,-0.211
9,GGTACCAC,-0.111
10,ATTTGGCG,0.01
11,AGACTCGA,-0.0387
12,ATAGTACC,0.174
13,CTCGGCTA,-0.153
14,CTCTGGAC,-0.112
15,GCATAAGA,0.086
16,AATACCAC,0.119
17,ATTGCCAG,0.0394
18,AAGTCAGC,-0.0231
19,AGCACTGC,-0.022
20,AAATTTTG,0.184
21,AATTTCGG,0.196
22,ACTGTCCT,-0.074
23,GCTTCTCC,-0.31
24,TTCGCCAA,-0.127
25,CTGGTACC,-0.319

row,Sequence,PBM E-score
1,ATGCGGAC,-0.244
2,CGTCAATA,0.00608
3,CATCGGCG,-0.201
4,ACAGTGAC,-0.068
5,ACACTCTG,0.007
6,ATAGCGCG,0.0995
7,CCGCCACC,-0.132
8,ACTCTGCG,-0.162
9,CTAATCCA,0.0428
10,CAGAACCG,-0.12
11,GAACTATC,0.147
12,TAGCCCAA,-0.0431
13,GTGCACAC,-0.0293
14,CAACAAAC,0.161
15,GACGCGAC,-0.2
16,GTTTTGTA,0.0951
17,CTCTTGAC,-0.0753
18,CTCCCTTC,-0.3
19,AACGGGTC,-0.183
20,AGCAAGAT,0.0879
21,TCTATTCA,0.167
22,AGCGGTCA,-0.161
23,CATTCGGC,-0.156
24,GGCTGACA,0.00838
25,CGTACATA,0.201

row,Sequence,PBM E-score
1,TACTTCTA,0.0401
2,AATACAGA,0.108
3,ACGAGAGG,-0.025
4,AAGCCGAG,-0.0492
5,ACCCGACT,-0.0776
6,GCGAATCC,-0.184
7,GTATTACA,0.161
8,CTGCGCGC,0.0145
9,AACTATCA,0.233
10,CGGTGCCA,-0.368
11,ACGGCCTA,-0.106
12,AAAGGTGG,0.0832
13,TCCGCGCA,-0.0886
14,ACGATTAA,0.141
15,ACTCAGAT,-0.0585
16,ACCTGAGC,-0.075
17,AGATGGCA,0.0938
18,GTTCAGAA,0.146
19,AATTACCG,0.0913
20,AACATTCG,-0.0415
21,ACAGACCC,-0.161
22,TACCTGAA,0.0791
23,AACAAGAA,0.274
24,AGTGGATG,-0.127
25,AAAGCCCG,-0.162

row,Sequence,PBM E-score
1,CTCTAATC,0.0958
2,CACGAGTC,-0.148
3,GACCGGAC,-0.259
4,CAGCGGAG,-0.26
5,ACCTTCGC,-0.0994
6,CAACAGCA,0.155
7,AATCATAG,0.219
8,ATATTGAA,0.189
9,CAAACGAG,0.103
10,CTAGTGAA,0.101
11,ATCCCCAC,-0.069
12,ACCCAAAC,0.138
13,ATGTCTTC,-0.213
14,CCAGGGAC,-0.282
15,GCTGATGA,0.041
16,AGCTGCGA,-0.0753
17,GCCATTCA,-0.0625
18,ATTAAGGA,0.177
19,ATTCTTTG,0.151
20,ACGAAGCG,-0.261
21,CTTGCGCC,-0.154
22,CAGGTCCA,-0.149
23,CCGACTAC,-0.0899
24,ATCGACGA,0.00669
25,CACCACTG,-0.0636

row,Sequence,PBM E-score
1,AGCGCCCT,-0.236
2,AAGAGGCC,-0.196
3,GTTCGTGA,-0.14
4,AGTACGTA,0.166
5,CAAAGTGG,-0.194
6,GACCGACC,-0.241
7,GTGACCGA,-0.062
8,GGTAGACC,-0.153
9,CCACTTTC,0.00792
10,AATCACCA,0.295
11,AACTAAAT,0.101
12,ACAGGCCC,-0.338
13,TACCAAAA,0.145
14,CATTCTTC,0.0876
15,GTAACGAC,-0.16
16,ATGGGCTG,-0.187
17,AGATACGA,0.234
18,CACTAGCA,-0.0077
19,CAGGGACG,-0.148
20,CGAATGGC,0.0852
21,TCGGCCAA,-0.136
22,TCGTGCCA,-0.139
23,TAGCTCCA,-0.0856
24,CGAACCGA,0.0979
25,AGTGGCGG,0.0136

row,Sequence,PBM E-score
1,CCCACTGC,0.0387
2,GGCCACGA,-0.2
3,CAGCCCAA,-0.102
4,AGCGTGGG,-0.357
5,AGATTATG,0.148
6,AATTAGCC,-0.00997
7,CACATGCG,-0.17
8,CCATCCCC,-0.192
9,ACATCATA,0.187
10,AGAAAAAC,0.0818
11,TCGTCACA,-0.0423
12,CTCTTAGA,0.0706
13,ATTACGAG,0.149
14,CCGGTCCC,-0.281
15,CAATGGAA,0.203
16,ATAAATAA,0.38
17,GTGAGCCA,0.0735
18,ATAAGTAA,0.225
19,CCTCTTCA,-0.218
20,CTTTACTA,0.217
21,CCGTGAAA,0.146
22,CGGGATCC,0.00926
23,ACGGTTTG,-0.0111
24,GCCCCTGA,-0.264
25,AACTTGCA,0.0768

row,Sequence,PBM E-score
1,CTCGCGAA,-0.0875
2,AAAGGAAG,0.0309
3,GCCTGATA,-0.0639
4,GTACCTCA,-0.0236
5,CTAGGCAC,-0.0738
6,AACTCGCT,0.0819
7,CAAATTTC,0.225
8,TACGATAA,0.151
9,AGCTCGCA,-0.134
10,GACCACTC,-0.232
11,AGCATCAT,0.014
12,ACATACCG,-0.198
13,CGGATAGC,-0.0896
14,TCGCCCGA,-0.162
15,GATTTGAA,0.177
16,CCGTCAAA,-0.0104
17,GAGAGCCC,-0.387
18,ACAGTCTG,-0.272
19,GAGCCAGA,0.00187
20,GTGGAGGA,0.0521
21,CTGACTGC,-0.188
22,GGAAATTA,0.264
